# According to the supplement of paper PMC8728848:
# This is one part of the list.
# B1: PX9961J-bvu-499-24-499 (Bacteroides vulgatus) (protein)
# chain: LNTDPSTAVPSDDAIKNIDDAQVALNGIYRLASAHSYYGDNYLYYADCRGEDVQARINKGAGRRVSPYYFFDVTADDNFNITLVWNQPYKVIHQANSLIEKLDAGNAGNARPEEVARIKSEALAMRGLALFDLTRLFGMPYTLDNGASLGVPIEIQTTLEDHAPERNTVAQCYEQVLKDLNDALGGLTKEKHDAYMNYWSVKALLSRVYLYMNDNENALKCAEEVINDNGGIYRLFTHDEYPSVWGKDFNSESLFEFYFTMSEPSGGSGGEGAPMVYADNVKDWNNLILTKAYLDLLNEDPEDVRHVFPHLPENAVADTLPVAAKGQPKYLIKYPGKSGSVTDAVSTVNPQDNDLCILRLSEVYLNAAEAAFKIGNTEKALTYLNAIVTRANPAKSVTSADLSLERILKERRKELVGEGHAFFDYMRNGKSVDRSGGWHLTMPEDARVIAPSDPRVALPIPQTEIDANPNIVQNPR
# Assays:
# Experiment in all cases: glycan array binding signal (z-score within array); higher = stronger binding
# Settings in all cases: glycan notation: IUPAC condensed, linker removed
# [1] = target: Neu5Ac(a2-3)Gal(b1-3)[Fuc(a1-4)]GlcNAc
# Method in brief: (§1)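 The binding signal is a Z-score computed within each array and averaged over linkers. Arrays of the same protein sequence at different concentrations or buffers were also averaged together. Data originate from 3228 arrays in the Consortium for Functional Glycomics database, kept only where the protein sequence was available.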
# [2] = target: Neu5Ac(a2-3)Gal(b1-3)[Fuc(a1-4)]GlcNAc(b1-3)Gal(b1-3)[Fuc(a1-4)]GlcNAc
# Method in brief: as §1
# [3] = target: Neu5Ac(a2-3)Gal(b1-3)[Fuc(a1-4)]GlcNAc(b1-3)Gal(b1-4)[Fuc(a1-3)]GlcNAc
# Method in brief: as §1
# [4] = target: Neu5Ac(a2-3)Gal(b1-3)[GlcNAc(b1-6)]GalNAc
# Method in brief: as §1
# [5] = target: Neu5Ac(a2-3)Gal(b1-3)[Neu5Ac(a2-6)]GalNAc
# Method in brief: as §1
# [6] = target: Neu5Ac(a2-3)Gal(b1-3)[Neu5Ac(a2-6)]GlcNAc(b1-3)[Fuc(a1-3)[Gal(b1-4)]GlcNAc(b1-6)]Gal(b1-4)Glc
# Method in brief: as §1
# [7] = target: Neu5Ac(a2-3)Gal(b1-3)]Neu5Ac(a2-3)Gal(b1-4)]GlcNAc
# Method in brief: as §1
# Neu5Ac(a2-3)Gal(b1-4)Glc = target: Neu5Ac(a2-3)Gal(b1-4)Glc
# Method in brief: as §1
# [8] = target: Neu5Ac(a2-3)Gal(b1-4)GlcNAc
# Method in brief: as §1
# [9] = target: Neu5Ac(a2-3)Gal(b1-4)GlcNAc(b1-2)Man
# Method in brief: as §1
# [10] = target: Neu5Ac(a2-3)Gal(b1-4)GlcNAc(b1-2)Man(a1-3)[GlcNAc(b1-4)][Neu5Ac(a2-3)Gal(b1-4)GlcNAc(b1-2)Man(a1-6)]Man(b1-4)GlcNAc(b1-4)GlcNAc
# Method in brief: as §1
# [11] = target: Neu5Ac(a2-3)Gal(b1-4)GlcNAc(b1-2)Man(a1-3)[Neu5Ac(a2-3)Gal(b1-4)GlcNAc(b1-2)Man(a1-6)]Man(b1-4)GlcNAc(b1-4)GlcNAc
# Method in brief: as §1
# [12] = target: Neu5Ac(a2-3)Gal(b1-4)GlcNAc(b1-2)Man(a1-3)[Neu5Ac(a2-3)Gal(b1-4)GlcNAc(b1-2)Man(a1-6)]Man(b1-4)GlcNAc(b1-4)[Fuc(a1-6)]GlcNAc
# Method in brief: as §1
# [13] = target: Neu5Ac(a2-3)Gal(b1-4)GlcNAc(b1-2)Man(a1-3)[Neu5Ac(a2-6)Gal(b1-4)GlcNAc(b1-2)Man(a1-6)]Man(b1-4)GlcNAc(b1-4)GlcNAc
# Method in brief: as §1
# [14] = target: Neu5Ac(a2-3)Gal(b1-4)GlcNAc(b1-2)[Neu5Ac(a2-3)Gal(b1-4)GlcNAc(b1-4)]Man(a1-3)[GlcNAc(b1-4)][Neu5Ac(a2-3)Gal(b1-4)GlcNAc(b1-2)[Neu5Ac(a2-3)Gal(b1-4)GlcNAc(b1-6)]Man(a1-6)]Man(b1-4)GlcNAc(b1-4)GlcNAc
# Method in brief: as §1
# [15] = target: Neu5Ac(a2-3)Gal(b1-4)GlcNAc(b1-2)[Neu5Ac(a2-3)Gal(b1-4)GlcNAc(b1-4)]Man(a1-3)[GlcNAc(b1-4)][Neu5Ac(a2-3)Gal(b1-4)GlcNAc(b1-4)Man(a1-6)]Man(b1-4)GlcNAc(b1-4)GlcNAc
# Method in brief: as §1
# [16] = target: Neu5Ac(a2-3)Gal(b1-4)GlcNAc(b1-2)[Neu5Ac(a2-3)Gal(b1-4)GlcNAc(b1-6)]Man(a1-6)[Neu5Ac(a2-3)Gal(b1-4)GlcNAc(b1-2)Man(a1-3)]Man(b1-4)GlcNAc(b1-4)GlcNAc
# Method in brief: as §1
# [17] = target: Neu5Ac(a2-3)Gal(b1-4)GlcNAc(b1-2)[Neu5Ac(a2-3)Gal(b1-4)GlcNAc(b1-6)]Man(a1-6)[Neu5Ac(a2-3)Gal(b1-4)GlcNAc(b1-2)Man(a1-3)][GlcNAc(b1-4)]Man(b1-4)GlcNAc(b1-4)GlcNAc
# Method in brief: as §1
# [18] = target: Neu5Ac(a2-3)Gal(b1-4)GlcNAc(b1-3)Gal
# Method in brief: as §1
# [19] = target: Neu5Ac(a2-3)Gal(b1-4)GlcNAc(b1-3)Gal(b1-3)GlcNAc
# Method in brief: as §1
# [20] = target: Neu5Ac(a2-3)Gal(b1-4)GlcNAc(b1-3)Gal(b1-4)GlcNAc
# Method in brief: as §1
# [21] = target: Neu5Ac(a2-3)Gal(b1-4)GlcNAc(b1-3)Gal(b1-4)GlcNAc(b1-2)Man(a1-3)[Neu5Ac(a2-3)Gal(b1-4)GlcNAc(b1-3)Gal(b1-4)GlcNAc(b1-2)Man(a1-6)]Man(b1-4)GlcNAc(b1-4)GlcNAc
# Method in brief: as §1
# [22] = target: Neu5Ac(a2-3)Gal(b1-4)GlcNAc(b1-3)Gal(b1-4)GlcNAc(b1-3)Gal(b1-4)GlcNAc
# Method in brief: as §1
# [23] = target: Neu5Ac(a2-3)Gal(b1-4)GlcNAc(b1-3)Gal(b1-4)GlcNAc(b1-3)Gal(b1-4)GlcNAc(b1-2)Man(a1-3)[Neu5Ac(a2-3)Gal(b1-4)GlcNAc(b1-3)Gal(b1-4)GlcNAc(b1-3)Gal(b1-4)GlcNAc(b1-2)Man(a1-6)]GalNAc
# Method in brief: as §1
# [24] = target: Neu5Ac(a2-3)Gal(b1-4)GlcNAc(b1-3)Gal(b1-4)GlcNAc(b1-3)GalNAc
# Method in brief: as §1
# [25] = target: Neu5Ac(a2-3)Gal(b1-4)GlcNAc(b1-3)Gal(b1-4)GlcNAc(b1-3)[Neu5Ac(a2-3)Gal(b1-4)GlcNAc(b1-3)Gal(b1-4)GlcNAc(b1-6)]GalNAc
# Method in brief: as §1
# [26] = target: Neu5Ac(a2-3)Gal(b1-4)GlcNAc(b1-3)Gal(b1-4)GlcNAc(b1-6)[Gal(b1-3)]GalNAc
# Method in brief: as §1
# [27] = target: Neu5Ac(a2-3)Gal(b1-4)GlcNAc(b1-3)Gal(b1-4)[Fuc(a1-3)]GlcNAc
# Method in brief: as §1
# [28] = target: Neu5Ac(a2-3)Gal(b1-4)GlcNAc(b1-3)GalNAc
# Method in brief: as §1
# [29] = target: Neu5Ac(a2-3)Gal(b1-4)GlcNAc(b1-3)[Neu5Ac(a2-3)Gal(b1-4)GlcNAc(b1-6)]GalNAc
# Method in brief: as §1
binder,measurement,setting,value
B1,glycan array binding signal (z-score),[1],0.031
same,glycan array binding signal (z-score),[2],0.457
same,glycan array binding signal (z-score),[3],-0.506
same,glycan array binding signal (z-score),[4],-0.805
same,glycan array binding signal (z-score),[5],-0.033
same,glycan array binding signal (z-score),[6],0.331
same,glycan array binding signal (z-score),[7],0.358
same,glycan array binding signal (z-score),Neu5Ac(a2-3)Gal(b1-4)Glc,0.041
same,glycan array binding signal (z-score),[8],0.036
same,glycan array binding signal (z-score),[9],0.768
same,glycan array binding signal (z-score),[10],-0.375
same,glycan array binding signal (z-score),[11],0.088
same,glycan array binding signal (z-score),[12],-0.485
same,glycan array binding signal (z-score),[13],0.277
same,glycan array binding signal (z-score),[14],-0.208
same,glycan array binding signal (z-score),[15],0.12
same,glycan array binding signal (z-score),[16],0.855
same,glycan array binding signal (z-score),[17],-0.416
same,glycan array binding signal (z-score),[18],-0.253
same,glycan array binding signal (z-score),[19],0.177
same,glycan array binding signal (z-score),[20],0.774
same,glycan array binding signal (z-score),[21],0.308
same,glycan array binding signal (z-score),[22],0.076
same,glycan array binding signal (z-score),[23],0.549
same,glycan array binding signal (z-score),[24],0.477
same,glycan array binding signal (z-score),[25],-0.391
same,glycan array binding signal (z-score),[26],-0.727
same,glycan array binding signal (z-score),[27],-0.587
same,glycan array binding signal (z-score),[28],-0.316
same,glycan array binding signal (z-score),[29],-0.509
